{"source": "patent US6245563A", "about": "“Enhanced activation of natural killer cells using an NK cell activator and hydrogen peroxide scavenger or inhibitor” (priority 2000, dated 2001)", "molecules": {"B1": {"name": "IFN-γ: interferon-γ (protein, UniProt P01579 24-161, looked up)", "Interferon gamma": "QDPYVKEAENLKKYFNAGHSDVADNGTLFLGILKNWKEESDRKIMQSQIVSFYFKLFKNFKDDQSIQKSVETIKEDMNVKFFNSNKKKRDDFEKLTNYSVTDLNVQRKAIHELIQVMAELSPAAKTGKRKRSQMLFRG"}}, "key": {"[1]": {"test_system": "YAC-1 mouse lymphoma cells", "details": "100 U/kg, intravenous, 2 hours after tumor inoculation"}, "NK cells [2]": {"test_system": "NK cells", "details": "histamine 10^-4 M or catalase 20 U/ml; IL-2 50 U/ml, 48 hours", "procedure": "During the last 8 hours of incubation, cells were pulsed with ^3 H-methyl-thymidine (specific activity 2 Ci/mole; New England Nuclear Corp.; 1 μCi/2×10^5 cells). Following incubation, the cells were collected on glass fiber filters with an automatic cell harvester and cell-incorporated ^3 H-methyl-thymidine was estimated by liquid scintillography."}, "K562 target cells [3]": {"test_system": "K562 target cells"}, "[4]": {"details": "histamine 10^-4 M, MPO 10 μg/ml, cell free", "procedure": "Chemiluminescence (CL) of cells was recorded at 37° C. in a 6-channel Biolumat LB 9505 (Berthold Co., Wildbad, Germany) using 4 ml polypropylene tubes as described by Lock et al. Anal. Biochem. 173:450 (1988). The reaction mixture contained 0.8 ml elutriated monocytes (5×10^6 cells/ml). The tubes were allowed to equilibrate for 5 minutes at 37° C. before formylmethionyl-leucyl-phenylalanine (fMLP; Sigma; 10^-7 M final concentration) and luminol (Sigma; 10^-6 M) were added and light emission recorded. Formylmethionyl-leucyl-phenylalanine was dissolved to 10^-2 M in dimethyl sulfoxide and subsequently diluted in Krebs-Ringer phosphate buffer supplemented with glucose (10 mM), Ca^2+ (1 mM), and Mg^2+ (1.5 mM). Luminol was dissolved in 0.1 mM NaOH to 5×10^-2 M and further diluted in Krebs-Ringer phosphate buffer."}, "K562 target cells [5]": {"test_system": "K562 target cells", "test": "IL-2-induced NK cell cytotoxicity with or without monocytes (microcytotoxicity)", "details": "histamine 10^-4 M or catalase 20 U/ml; IL-2 50 U/ml, 16 hours", "procedure": "These mixtures were then incubated with K562 target cells in sextuplicate in microplates in a total volume of 200 μl and assayed for microcytotoxicity."}, "RBC [6]": {"test_system": "RBC", "details": "histamine 10^-4 M, H2 O2 5×10^-5 M"}, "K562 target cells [7]": {"test_system": "K562 target cells", "details": "histamine 10^-4 M or catalase 20 U/ml, added at time points after start of assay"}, "K562 target cells [8]": {"test_system": "K562 target cells", "procedure": "After 1 hour incubation, nonadherent lymphocytes were recovered, washed twice, and assayed for cytotoxicity as described above. We wished to determine whether the NK cell inhibitory signal was reversible by removal of monocytes and removal of monocyte-derived products.", "remark": "listed apart in the source"}, "NK cells [9]": {"test_system": "NK cells", "details": "cited from earlier work"}, "K562 target cells [10]": {"test_system": "K562 target cells", "test": "cells", "details": "Homo sapiens, K562, read-out: ED50 for suppression of NK cell cytotoxicity"}, "RBC [11]": {"test_system": "RBC", "test": "cells", "details": "Erythrocyte, read-out: lysis of RBC"}, "NK activity": {"test_system": "NK activity", "details": "spleen, liver, lungs, peritoneum; cited from earlier work"}, "human neoplasia": {"test_system": "human neoplasia", "details": "cited from earlier work"}}, "note": "Where two headings read alike, the source gives them in different places."}
{"molecule": "catalase", "values": [{"measurement": "NK cell-mediated killing of YAC-1 lymphoma cells in vivo (retained radioactivity in lungs)", "setting": "[1]", "result": "augmented the NK cell-mediated killing of YAC-1 lymphoma cells in vivo"}, {"measurement": "reversal of monocyte-induced inhibition of IL-2-induced NK cell proliferation", "setting": "NK cells [2]", "result": "effectively reverse this monocyte-induced inhibition"}]}
{"molecule": "NCCc1c[nH]cn1", "note": "[histamine]", "values": [{"measurement": "reversal of H2 O2-induced inhibition of NK cells", "setting": "K562 target cells [3]; catalase 20 U/ml, histamine, data not shown", "result": "but not histamine"}, {"measurement": "effect on CL recorded with H2 O2 and/or MPO or H2 O2 and HRP", "setting": "[4]", "result": "unchanged"}, {"measurement": "reversal of monocyte-induced inhibition of IL-2-induced NK cell cytotoxicity", "setting": "K562 target cells [5]", "result": "effectively reverse this monocyte-induced inhibition"}, {"measurement": "effect on RBC killing induced by H2 O2", "setting": "RBC [6]", "result": "did not alter the level of RBC killing induced by H2 O2"}, {"measurement": "time window of effect on the NK cell suppressive signal", "setting": "K562 target cells [7]", "result": "effective in inhibiting the NK cell suppressive signal only when these compounds were added within the first hour of incubation"}, {"measurement": "reversal of monocyte-induced inhibition of IL-2-induced NK cell proliferation", "setting": "NK cells [2]", "result": "effectively reverse this monocyte-induced inhibition"}, {"measurement": "cell lysis %", "setting": "K562 target cells [8]; pretreatment 1 hour, 10^-5 M, MO+", "result": "51 ± 2", "unit": "%"}, {"measurement": "cell lysis %", "setting": "K562 target cells [8]; pretreatment 1 hour, 10^-5 M, MO-", "result": "59 ± 3", "unit": "%"}, {"measurement": "cytotoxicity of lymphocytes recovered from monocyte/NK cell mixtures", "setting": "K562 target cells [8]; pretreatment 1 hour, versus medium control", "result": "more cytotoxic against K562 target cells than control mixtures pretreated with medium only"}]}
{"molecule": "IL-12: also known as natural killer cell stimulatory factor (NKSF), is a recently discovered cytokine", "values": [{"measurement": "effect on NK cell activity/cytotoxicity", "setting": "NK cells [9]", "result": "increase NK cell and cytotoxic T lymphocyte activity, T cell proliferation, and the production of interferon-γ"}, {"measurement": "cytotoxic activity of peripheral blood lymphocytes", "setting": "NK cells [9]; tumor-derived target cell lines", "result": "enhance the spontaneous cytotoxic activity of peripheral blood lymphocytes against a variety of tumor-derived target cell lines"}]}
{"molecule": "O=C(O)Cc1cccc2c(=O)c3ccccc3oc12", "note": "[XAA, Xanthenone-4-acetic acid]", "values": [{"measurement": "effect on NK cell activity/cytotoxicity", "setting": "NK cells [9]", "result": "induce NK activity in vitro"}]}
{"molecule": "OO", "note": "[H2 O2, hydrogen peroxide]", "values": [{"measurement": "suppression of NK cell cytotoxicity", "setting": "K562 target cells [3]; 0-10 μM, enriched NK cells", "result": "effectively suppressed NK cell cytotoxicity"}, {"measurement": "IC50", "setting": "K562 target cells [10]", "result": "~2", "unit": "µM"}, {"measurement": "hemolysis at 50 µM", "setting": "RBC [11]", "result": "~50", "unit": "%"}, {"measurement": "inhibition of NK cell cytotoxicity by pretreatment", "setting": "K562 target cells [8]", "result": "sufficient to effectively inhibit NK cell cytotoxicity"}, {"measurement": "cell lysis %", "setting": "K562 target cells [8]; pretreatment 20 minutes, 1.5 × 10^-6 M, MO-", "result": "26 ± 2", "unit": "%"}, {"measurement": "cell lysis %", "setting": "K562 target cells [8]; pretreatment 20 minutes, 3 × 10^-6 M, MO-", "result": "12 ± 1", "unit": "%"}, {"measurement": "cell lysis %", "setting": "K562 target cells [8]; pretreatment 20 minutes, 6 × 10^-6 M, MO-", "result": "2 ± 1", "unit": "%"}]}
{"molecule": "O=C(O)Cc1cccc2c(=O)cc(-c3ccccc3)oc12", "note": "[FAA, Flavone-8-acetic acid]", "values": [{"measurement": "NK activity in vivo", "setting": "NK activity", "result": "potently augment NK activity in the spleen, liver, lungs, and peritoneum"}, {"measurement": "reasons for disappointing clinical trials", "setting": "human neoplasia; human, in vivo", "result": "non-linear pharmokinetics, low dose potency and problems of drug precipitation"}]}
{"molecule": "IFN-α", "values": [{"measurement": "effect on NK cell activity/cytotoxicity", "setting": "NK cells [9]", "result": "enhance NK cell cytotoxicity"}, {"measurement": "clinical anti-tumor outcome", "setting": "human neoplasia; high doses", "result": "the overall results of therapy with high doses of IFN-α have been disappointing"}, {"measurement": "side effects / toxic reactions in patients", "setting": "human neoplasia; human, in vivo", "result": "acute toxic reactions including fever, chills, myalgias, anorexia, fatigue, headache, nausea and vomiting"}]}
{"molecule": "B1", "values": [{"measurement": "effect on NK cell activity/cytotoxicity", "setting": "NK cells [9]", "result": "enhance NK cell cytotoxicity"}]}
